Experimental data published in the supplement of paper PMC12217912.
Some of the results follow. Sequences were assembled here from the parent chain. Inactive controls read about 0.05.

B1: TEV protease; numbered along this chain (parent)
chain: MGESLFKGPRDYNPISSSICHLTNESDGHTTSLYGIGFGPFIITNKHLFRRNNGTLVVQSLHGVFKVKDTTTLQQHLVDGRDMIIIRMPKDFPPFPQKLKFREPQREERICLVTTNFQTKSMSSMVSDTSCTFPSGDGIFWKHWIQTKDGQCGSPLVSTRDGFIVGIHSASNFTNTNNYFTSVPKNFMELLTNQEAQQWVSGWRLNADSVLWGGHKVFMVKPEEPFQPVKEATQL

Variants of: B1
Assay: raw area under fraction-flipped curve 0-4 h after induction (AUC4h, not background-subtracted), DNA-recorder readout of cleavage of the substrate (dimensionless); higher = more cleavage of the substrate by the protease variant
Conditions: temperature: 34 °C; time window: 0-4 h after rhamnose induction
Method: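 In vivo DNA recorder in E. coli TOP10(DE3) ΔrhaA at 34 °C. Each TEVp single-site mutant (parent TEVp 0) is paired with a single-site variant of the 7-mer TEVs (canonical ENLYFQ|S). The substrate sits between flexible linkers in a Bxb1-sfGFP-TEVs-SsrA fusion, so cleavage stabilises Bxb1 and speeds flipping of a recombination array, read by NGS. The value is the raw area under the fraction-flipped curve over 0-4 h after rhamnose induction (AUC4h), with ≥20 reads per time point. It is not background-subtracted; inactive controls average about 0.047.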
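Also: Bxb1 expression induced with 0.2% (w/v) L-rhamnose at OD600 near 0.5, cultures sampled hourly, flipped fraction per protease–substrate barcode pair counted by paired-end Illumina sequencing.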

| Variant | area with substrate ENLYFQD | area with substrate ENLYFQE | area with substrate ENLYFQF | area with substrate ENLYFQG | area with substrate ENLYFQH | area with substrate ENLYFQI | area with substrate ENLYFQK | area with substrate ENLYFQL | area with substrate ENLYFQM | area with substrate ENLYFQN | area with substrate ENLYFQP | area with substrate ENLYFQR | area with substrate ENLYFQS | area with substrate ENLYFQV | area with substrate ENLYFQW | area with substrate ENLYFQQ | area with substrate ENLYFQT | area with substrate ENLYFQY |
| --- | --- | --- | --- | --- | --- | --- | --- | --- | --- | --- | --- | --- | --- | --- | --- | --- | --- | --- |
| MGESLFKGPRDYNPISSSICHLTNESDGHTTSLYGIGFGPFIITMKHLFRRNNGTLVVQSLHGVFKVKDTTTLQQHLVDGRDMIIIRMPKDFPPFPQKLKFREPQREERICLVTTNFQTKSMSSMVSDTSCTFPSGDGIFWKHWIQTKDGQCGSPLVSTRDGFIVGIHSASNFTNTNNYFTSVPKNFMELLTNQEAQQWVSGWRLNADSVLWGGHKVFMVKPEEPFQPVKEATQL [N45M] | 0.0537 | 0.0636 | 0.0519 | 0.0722 | 0.0541 | 0.0573 | 0.0641 | 0.0675 | 0.0539 | 0.0851 | 0.0562 | 0.0754 | 0.0648 | 0.0658 | 0.0618 | – | – | – |
| MGESLFKGPRDYNPISSSICHLTNESDGHTTSLYGIGFGPFIITNKPLFRRNNGTLVVQSLHGVFKVKDTTTLQQHLVDGRDMIIIRMPKDFPPFPQKLKFREPQREERICLVTTNFQTKSMSSMVSDTSCTFPSGDGIFWKHWIQTKDGQCGSPLVSTRDGFIVGIHSASNFTNTNNYFTSVPKNFMELLTNQEAQQWVSGWRLNADSVLWGGHKVFMVKPEEPFQPVKEATQL [H47P] | 0.0624 | – | – | 0.0688 | – | 0.0574 | 0.0516 | 0.0584 | 0.047 | – | – | 0.0551 | 0.0593 | – | 0.066 | 0.0676 | 0.0658 | 0.0579 |
| MGESLFKGPRDYNPISSSICHLTNESDGHTTSLYGIGFGPFIITNKHLFRRKNGTLVVQSLHGVFKVKDTTTLQQHLVDGRDMIIIRMPKDFPPFPQKLKFREPQREERICLVTTNFQTKSMSSMVSDTSCTFPSGDGIFWKHWIQTKDGQCGSPLVSTRDGFIVGIHSASNFTNTNNYFTSVPKNFMELLTNQEAQQWVSGWRLNADSVLWGGHKVFMVKPEEPFQPVKEATQL [N52K] | 0.063 | 0.0638 | – | 0.0588 | – | 0.0577 | 0.0653 | 0.0596 | – | – | 0.0637 | – | 0.0707 | – | – | – | – | – |
| MGESLFKGPRDYNPISSSICHLTNESDGHTTSLYGIGFGPFIITNKHLFRRNNGTLVVQSLHGVFKVKDTTTLQQHLVDGRDMIIIRMPKDFPPFPQGLKFREPQREERICLVTTNFQTKSMSSMVSDTSCTFPSGDGIFWKHWIQTKDGQCGSPLVSTRDGFIVGIHSASNFTNTNNYFTSVPKNFMELLTNQEAQQWVSGWRLNADSVLWGGHKVFMVKPEEPFQPVKEATQL [K98G] | 0.0639 | – | – | 0.0995 | – | 0.0582 | 0.057 | 0.0638 | 0.0837 | 0.0699 | – | – | 0.104 | 0.0745 | – | – | 0.0636 | 0.0794 |
| MGESLFKGPRDYNPISSSICHLTNESDGHTTSLYGIGFGPFIITNKHLFRRNNGTLVVQSLHGVFKVKDTTTLQQHLVDGRDMIIIRMPKDFPPFPQKLKFREPQREMRICLVTTNFQTKSMSSMVSDTSCTFPSGDGIFWKHWIQTKDGQCGSPLVSTRDGFIVGIHSASNFTNTNNYFTSVPKNFMELLTNQEAQQWVSGWRLNADSVLWGGHKVFMVKPEEPFQPVKEATQL [E108M] | 0.0581 | 0.0516 | – | – | – | 0.0547 | 0.0618 | 0.0571 | – | 0.0698 | 0.0555 | 0.0718 | 0.0851 | 0.0642 | 0.061 | 0.0659 | 0.0683 | 0.0586 |
| MGESLFKGPRDYNPISSSICHLTNESDGHTTSLYGIGFGPFIITNKHLFRRNNGTLVVQSLHGVFKVKDTTTLQQHLVDGRDMIIIRMPKDFPPFPQKLKFREPQREERICLVTENFQTKSMSSMVSDTSCTFPSGDGIFWKHWIQTKDGQCGSPLVSTRDGFIVGIHSASNFTNTNNYFTSVPKNFMELLTNQEAQQWVSGWRLNADSVLWGGHKVFMVKPEEPFQPVKEATQL [T115E] | 0.0829 | – | – | – | 0.112 | 0.0641 | – | 0.0719 | 0.0947 | – | – | – | 0.106 | 0.0591 | – | – | 0.0715 | 0.112 |
| MGESLFKGPRDYNPISSSICHLTNESDGHTTSLYGIGFGPFIITNKHLFRRNNGTLVVQSLHGVFKVKDTTTLQQHLVDGRDMIIIRMPKDFPPFPQKLKFREPQREERICLVTFNFQTKSMSSMVSDTSCTFPSGDGIFWKHWIQTKDGQCGSPLVSTRDGFIVGIHSASNFTNTNNYFTSVPKNFMELLTNQEAQQWVSGWRLNADSVLWGGHKVFMVKPEEPFQPVKEATQL [T115F] | 0.0582 | – | – | 0.0999 | 0.0768 | 0.0538 | 0.0592 | 0.0432 | – | 0.0668 | 0.0433 | 0.0494 | 0.102 | – | – | – | – | 0.0807 |
| MGESLFKGPRDYNPISSSICHLTNESDGHTTSLYGIGFGPFIITNKHLFRRNNGTLVVQSLHGVFKVKDTTTLQQHLVDGRDMIIIRMPKDFPPFPQKLKFREPQREERICLVTTNFQTKSMSSMVSDTSCTFPGGDGIFWKHWIQTKDGQCGSPLVSTRDGFIVGIHSASNFTNTNNYFTSVPKNFMELLTNQEAQQWVSGWRLNADSVLWGGHKVFMVKPEEPFQPVKEATQL [S135G] | 0.0496 | – | 0.0492 | 0.0752 | 0.0453 | 0.0918 | 0.07 | 0.0591 | 0.0645 | – | 0.0694 | 0.0511 | 0.0834 | 0.0518 | 0.0531 | – | 0.0555 | 0.0653 |
